Assay results reported in publication PMC4336329 (PLoS ONE, 2015).
In all, about 310,000 compounds went through this assay and about 2,200 (0.71%) showed an effect of 50% or more. The effect is printed as a negative number. This is one part of the list.

Target: human ether-à-go-go-related gene (hERG) potassium channel (human, UniProt Q12809)
Test: primary screen, population patch clamp on CHO cells stably expressing hERG

Chain of human ether-à-go-go-related gene (hERG) potassium channel (Q12809 whole entry, looked up): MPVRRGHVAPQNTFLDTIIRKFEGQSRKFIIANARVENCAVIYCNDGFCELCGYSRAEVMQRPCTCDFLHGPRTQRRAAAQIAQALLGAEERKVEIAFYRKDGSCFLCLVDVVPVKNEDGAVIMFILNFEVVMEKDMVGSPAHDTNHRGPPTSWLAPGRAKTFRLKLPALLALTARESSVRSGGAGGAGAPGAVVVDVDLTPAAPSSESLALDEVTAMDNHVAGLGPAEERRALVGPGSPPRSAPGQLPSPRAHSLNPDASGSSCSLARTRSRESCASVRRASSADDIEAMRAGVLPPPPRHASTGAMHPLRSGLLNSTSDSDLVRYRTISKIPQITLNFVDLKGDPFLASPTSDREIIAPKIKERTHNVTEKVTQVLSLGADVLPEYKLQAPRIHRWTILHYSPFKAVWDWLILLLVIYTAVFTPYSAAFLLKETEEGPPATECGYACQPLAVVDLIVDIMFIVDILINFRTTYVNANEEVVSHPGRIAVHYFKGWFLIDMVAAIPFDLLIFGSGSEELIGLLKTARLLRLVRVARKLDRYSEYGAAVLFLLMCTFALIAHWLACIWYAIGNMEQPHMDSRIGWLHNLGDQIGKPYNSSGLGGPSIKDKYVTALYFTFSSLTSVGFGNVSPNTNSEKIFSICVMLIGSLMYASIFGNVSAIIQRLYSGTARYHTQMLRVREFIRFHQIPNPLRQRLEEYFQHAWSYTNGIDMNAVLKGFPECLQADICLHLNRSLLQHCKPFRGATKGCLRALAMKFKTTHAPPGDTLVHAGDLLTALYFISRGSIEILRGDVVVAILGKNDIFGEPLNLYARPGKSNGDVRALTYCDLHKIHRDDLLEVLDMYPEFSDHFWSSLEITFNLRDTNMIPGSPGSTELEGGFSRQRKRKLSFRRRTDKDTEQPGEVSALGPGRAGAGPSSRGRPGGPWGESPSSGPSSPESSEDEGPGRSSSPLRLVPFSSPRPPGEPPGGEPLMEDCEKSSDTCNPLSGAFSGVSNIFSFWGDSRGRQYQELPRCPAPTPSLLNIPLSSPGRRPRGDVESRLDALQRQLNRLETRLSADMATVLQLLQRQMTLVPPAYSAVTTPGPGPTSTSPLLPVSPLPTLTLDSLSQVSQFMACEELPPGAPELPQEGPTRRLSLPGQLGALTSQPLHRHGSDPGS

| Compound | hERG current change (%, negative = inhibition) at 1uM [%] |
| --- | --- |
| CCN(c1ccc2c(c1)OCO2)S(=O)(=O)c1cc(Br)cc2c1N(C(C)=O)CC2 | 2.27 |
| CCNC(=O)n1nccc1C(C)Oc1cccc(C(F)(F)F)c1 (stereo not shown) | -6.21 |
| CC(N=C1NS(=O)(=O)c2ccccc21)C(=O)NCCCc1ccccc1 (stereo not shown) | 13 |
| Cc1nc(NC(=O)c2ccncc2)sc1C(=O)N(C)C | 12.3 |
| COc1cc(C(NC=O)C(=O)Nc2c(C)cccc2C)ccc1O (stereo not shown) | 5.3 |
| CC(=O)N1CCc2cc(S(=O)(=O)NCCC(=O)Nc3cccc(C)c3)ccc21 | 8.66 |
| NS(=O)(=O)c1cccc(NC(=O)COC(=O)C2CCN(S(=O)(=O)c3cccs3)CC2)c1 | 9.68 |
| O=C(O)Cc1csc(NC(=O)CSc2cccc(C(=O)O)n2)n1 | 10.5 |
| C/C(=N\NC(=O)c1ccccc1)c1ccccc1Br | 17.9 |
| COC(=O)c1cccc(NC(=O)Cc2coc3cc(OC)ccc23)c1 | 7.58 |
| CC(C)CC(=O)NS(=O)(=O)c1ccc(NC(=O)c2ccco2)cc1 | 17.5 |
| NS(=O)(=O)c1cccc2c1c([N+](=O)[O-])cc1nc([O-])c([O-])nc12.[Na+] | 20.2 |
| CCCOc1ncnc2c1[nH]c1ccc(C)cc12 | 9.2 |
| O=C1/C(=C\c2ccco2)SC(=S)N1C1CCS(=O)(=O)C1 (stereo not shown) | 9.18 |
| O=C(c1ccccc1)N1C(=O)C(c2ccccc2)Oc2ccccc21 (stereo not shown) | 9.38 |
| CC1=C(C(=O)OCc2ccc3c(c2)OCO3)C(c2cccc([N+](=O)[O-])c2)NC(=O)N1 (stereo not shown) | 1.04 |
| O=C(Nc1cccnc1Cl)c1ccc(Cl)c([N+](=O)[O-])c1 | 7.11 |
| COc1ccccc1NC(=O)c1ccc(NC(=O)C2COc3ccccc3O2)cc1 (stereo not shown) | 13.5 |
| O=c1[nH]c(NCCO)nc2c1C1(CCCCC1)Cc1ccccc1-2 | 4.65 |
| O=C(CCCc1ccccc1)Nc1ccnn1C1CCN(Cc2ccc(Cl)cc2)CC1 | -13.2 |
| CC1=CN2C(=N)/C(=C/c3ccc(Sc4ccc(Cl)cc4)o3)C(=O)N=C2S1 | 7.59 |
| CC(=O)Nc1ccc(S(=O)(=O)Oc2cccc(/C=N/N=C3/NC(=O)C(CC(=O)O)S3)c2)cc1 (stereo not shown) | 15.8 |

| Compound | hERG current change (%, negative = inhibition) at 1uM [%] |
| --- | --- |
| CC1C=CCC2C(=O)N(c3ccccc3OC(=O)c3cccs3)C(=O)C12 (stereo not shown) | 9.04 |
| CCC(C)N(C(=O)CSc1ccc(NC(C)=O)cc1)C1CCS(=O)(=O)C1 (stereo not shown) | 22.2 |
| Cc1nc2ccccc2c(=O)n1/N=C/c1cc(Br)ccc1O | 19.1 |
| Nc1nc(CSc2nc3ccccc3s2)nc(N2CCOCC2)n1 | 10.9 |
| Cc1ccc(/C(N)=N/OC(=O)COc2ccc(Cl)c(C)c2)cc1 | 11.9 |
| CC(C)N(CCn1c(SCC(=O)Nc2cccnc2Cl)nc2ccccc2c1=O)C(C)C | -23.7 |
| Cc1ccc(N2CC(C(=O)N3CCCc4ccccc43)CC2=O)cc1 (stereo not shown) | -7.4 |
| COc1cc(C(N)=O)cc(Br)c1OCc1ccccc1 | 14.6 |
| Cc1nc2ccccc2c(=O)n1/N=C/c1ccccc1F | 1.71 |
| c1ccc(Cc2cc(-c3ccccc3)on2)cc1 | 10.7 |
| CC1Cc2ccccc2N1S(=O)(=O)c1cccc(C(=O)OCC(=O)NC2CCS(=O)(=O)C2)c1 (stereo not shown) | 4.84 |
| O=C(Cn1cnc([N+](=O)[O-])n1)N/N=C/c1ccccc1O | 11.1 |
| O=C(C1CCCCN1S(=O)(=O)c1ccccc1[N+](=O)[O-])N1CCCCC1 (stereo not shown) | 13.6 |
| CCc1cccc(C)c1NC(=O)CCNC(=O)c1cccc(C)c1 | 14.8 |
| Cc1nn(C)cc1/C=N/NC(=O)C1(O)c2ccccc2-c2ccccc21 | 9.4 |
| CN1CCN(C2CC(=O)N(c3ccc4c(c3)OCCO4)C2=O)CC1.Cl (stereo not shown) | 14.9 |
| N#Cc1cccc(NC(=O)CCNC(=O)c2ccccc2Cl)c1 | 10.5 |
| CCCCCCCCCCNC(=O)C(=O)Nc1ccccn1 | 10.3 |
| COc1ccc(N2CC(O)=C(c3nc(-c4ccc(Br)cc4)cs3)C2=N)cc1 | 18.6 |
| COc1ccc(C(=O)N2C(=O)c3ccc(N)cc3C2=O)cc1 | 10.2 |
| c1ccc2c(c1)CC1(CCCC1)n1nnnc1-2 | -12.6 |
| CCOc1ccc(C2CC(=O)NC3=C2C(=O)CCC3)cc1Cl (stereo not shown) | 9.92 |

| Compound | hERG current change (%, negative = inhibition) at 1uM [%] |
| --- | --- |
| CCC1(CC)C(=O)NC(=O)NC1=NCCc1c[nH]c2ccccc12 | 21.2 |
| Cc1ccccc1Nc1c(-c2ccncc2)nc2ccc(Cl)cn12 | 6.85 |
| O=C(NCCc1nc2ccccc2[nH]1)/C(=C/c1ccc2c(c1)OCO2)NC(=O)c1ccccc1Cl | -49.9 |
| COc1ccc(C(C[N+](=O)[O-])c2c(C)cc3ccccn23)c(OC)c1 (stereo not shown) | 17 |
| COc1ccc([C@@H]2Sc3ccccc3NC(=O)[C@@H]2O)cc1 | 7.02 |
| Cc1cc(C(=O)COC(=O)C2CC2)c(C)n1-c1ccc(F)cc1 | 4.45 |
| CC(NC(=O)C1CC1)C(c1cccs1)N1CCOCC1 (stereo not shown) | 8.13 |
| Cc1ccc(C)c2c1[nH]c1ccc([N+](=O)[O-])cc12 | 13 |
| O=C(O)CCC(=O)OC1CC2CCC1C2 (stereo not shown) | 2.35 |
| CC1CCCN(CCOCCSc2ccccc2)C1.O=C(O)C(=O)O (stereo not shown) | -1.26 |
| CCn1nc(C(=O)OCC(=O)N(CCC#N)c2ccccc2)c2ccccc2c1=O | 0.704 |
| CCCCOc1cccc(C(=O)Nc2ccc(NC(=O)c3cccs3)cc2)c1 | 15.7 |
| CC(=O)NCCc1nc2cc(NC(=O)COc3ccc(C)cc3)ccc2n1C | 14.9 |
| O=C(O)CCC(NC(=S)Nc1ccccc1)C(=O)O (stereo not shown) | 8.14 |
| Cc1ccc(C(=O)O/N=C(\N)Cc2cccs2)cc1[N+](=O)[O-] | 3.66 |
| CCCCn1c(O)c(C=NCCCN(CC)CC)c(=O)[nH]c1=O | 3.77 |
| COc1ccc(NC(=O)C=C(C)C)cc1Cl | 12.1 |
| N#CC1=C(SCC(=O)NC23CC4CC(CC(C4)C2)C3)NC(=O)C(C#N)C12CCCCC2 (stereo not shown) | 6.03 |
| CC(=O)c1cccc(NC(=O)N2CCCC2C(=O)NCCC(C)C)c1 (stereo not shown) | 11.7 |
| Cc1ccc([N+](=O)[O-])cc1S(=O)(=O)Nc1ccc(O)c(Sc2ncn[nH]2)c1 | 14.7 |
| Cc1cc(C)cc(NS(=O)(=O)c2ccc3c(c2)c(=O)n(C)c(=O)n3C)c1 | 1.74 |
| Cc1ccc(C(=O)Nc2c3c(nn2-c2ccccc2)CS(=O)(=O)C3)cc1C | 0.317 |

| Compound | hERG current change (%, negative = inhibition) at 1uM [%] |
| --- | --- |
| c1csc(-c2nc3nc4ccccc4nc3n2Cc2ccc3c(c2)OCO3)c1 | 11.9 |
| Cc1cc(C=C2C(=O)NC(=O)NC2=O)c(C)n1-c1ccc2c(c1)OCO2 | 13.5 |
| CCC(C)Sc1nc2c(c(=O)[nH]c(=O)n2C)n1CC(O)COc1cccc2ccccc12 (stereo not shown) | 7.44 |
| O=C(Cc1ccc([N+](=O)[O-])cc1)NCC1CCCO1 (stereo not shown) | 9.72 |
| O=C(NCc1ccccc1Br)c1ccncc1 | 13.6 |
| O=C(Nc1nc(-c2cc(F)ccc2F)cs1)C1=COCCO1 | 2.56 |
| Cl.O=C(CCN1CCOCC1)NC12CC3CC(CC(C3)C1)C2 | 10.9 |
| COc1cccc(NC(=O)CN(C)C(=O)c2ccc3c(c2)S(=O)(=O)N=C2CCCCCN23)c1 | 14.2 |
| CCOC(=O)C1C(=O)C(C(=O)OCC)C(c2cccnc2)NC1c1cccnc1 (stereo not shown) | 0.543 |
| COc1ccc(NC(=O)/C(C#N)=C\c2ccc(OCc3ccc(C(=O)O)cc3)c(OC)c2)cc1 | -12.9 |
| COCc1nnc(NC(=O)CC(C)C)s1 | 7.31 |
| CCc1nnc(NS(=O)(=O)c2ccc(NC(=S)NC(=O)/C=C/c3ccc(OC)cc3)cc2)s1 | 12.9 |
| CS(=O)(=O)N1CCCC(C(=O)NCCCN2CCC(Cc3ccccc3)CC2)C1 (stereo not shown) | 2.99 |
| COc1ccc(CNS(=O)(=O)c2ccc(OC)cc2)cc1 | 8.05 |
| CC(CC(=O)NCC1CCCO1)c1ccccc1 (stereo not shown) | 9.55 |
| COc1ccc(-c2nc3ccccc3c(=O)n2O)cc1 | 15.5 |
| COc1ccccc1C(=O)NC(CCSC)C(=O)NCC(c1ccccc1OC)N1CCCC1 (stereo not shown) | -3.45 |
| O=S(=O)(c1ccc(F)cc1F)N1CCCN(c2ccc(C(F)(F)F)cn2)CC1 | 5.84 |
| Cc1nn(Cc2ccccc2)c(Cl)c1C(=O)NC(C)(C)C | 1.73 |
| CCOC(=O)C1(Cc2ccccc2)CCN(Cc2ccc3c(c2)OCCO3)CC1 | -0.488 |
| CC(C)(C)OC(=O)[C@H](Cc1ccccc1)NC(=O)c1[nH]cnc1C(=O)Nc1cccc(Cl)c1 | 14.4 |
| CC(C)CNC(=O)c1ccccc1NC(=O)c1ccccc1N(C)S(=O)(=O)c1ccccc1 | 11 |
